{"source": "PubChem BioAssay AID1030", "about": "(National Center for Advancing Translational Sciences (NCATS), 2008)", "note": "Screen size: about 220,000 compounds; about 16,000 (7.3%) were called active. Calls follow the shape of the dose curve; as a rule, active = well fitted inhibition curve with a large enough effect (not every such curve was filed as active); inconclusive = small, poorly fitted or top-dose-only effect, or another doubt; inactive = no such curve, though single readings can be large or run the other way. Inconclusive results, whose numbers are uncertain, are shown. No potency is given beside an inconclusive call; the fits are too rough. Potency is read from the fitted curve at half-maximal effect; tags tell the direction and shape of the fitted curve."}
{"molecular_target": "Aldehyde dehydrogenase 1A1 (Homo sapiens) (UniProt P00352)", "sequence (P00352 whole entry, looked up)": "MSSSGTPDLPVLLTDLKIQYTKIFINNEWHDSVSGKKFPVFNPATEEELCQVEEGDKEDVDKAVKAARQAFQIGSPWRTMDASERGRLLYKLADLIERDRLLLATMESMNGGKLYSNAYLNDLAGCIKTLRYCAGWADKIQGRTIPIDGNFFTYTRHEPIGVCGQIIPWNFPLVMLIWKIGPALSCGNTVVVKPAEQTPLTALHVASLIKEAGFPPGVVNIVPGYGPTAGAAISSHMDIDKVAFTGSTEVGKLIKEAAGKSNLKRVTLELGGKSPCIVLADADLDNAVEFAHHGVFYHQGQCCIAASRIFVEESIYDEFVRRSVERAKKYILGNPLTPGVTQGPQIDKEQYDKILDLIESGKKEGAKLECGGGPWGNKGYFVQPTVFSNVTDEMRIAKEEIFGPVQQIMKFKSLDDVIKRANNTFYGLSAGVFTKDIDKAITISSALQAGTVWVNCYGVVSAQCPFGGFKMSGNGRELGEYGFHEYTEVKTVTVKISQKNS", "test": "qHTS Assay for Inhibitors of Aldehyde Dehydrogenase 1 (ALDH1A1)", "settings": "Purified ALDH1A1, NADH fluorescence, propionaldehyde substrate; series mostly up to 75.3 µM"}
{"smiles": "O=C(Nc1ccc(-c2nc3ccccc3[nH]2)cc1)c1ccccc1NS(=O)(=O)c1ccc(F)cc1", "Potency": "inconclusive [inhibitor, partial curve]"}
